Experimental findings from ChEMBL document CHEMBL4888484, “Replenishing the malaria drug discovery pipeline: Screening and hit evaluation of the MMV Hit Generation Library 1 (HGL1) against asexual blood stage Plasmodium falciparum ,using a nano luciferase reporter read-out” (2022) are described below.

Screen size: about 150,000 compounds; about 540 (0.36%) showed an effect of 50% or more. The list shows a part of the results.

In this experiment the test system is Plasmodium falciparum. The experiment in a line: Primary screen in NF54 nanoGlo assay, in single point, at 2uM, 72h; a lower Z score goes with more inhibition. The conditions noted are these: timepoint 72 hour. Format: functional, Erythrocyte.
What is called % Inhibition is the drop in the measured response relative to a control, in per cent. `Cc1nnc(CN(C)Cc2ccc3ccccc3n2)o1`: the “% Inhibition” value is on record as -21% and the Z score worked out at 2.06.

As for `C[C@](O)(CNS(=O)(=O)CC1CCC(F)(F)CC1)c1ccccc1`, the “% Inhibition” value was -2% and the Z score is 0.22.

As for `CCC1(C)CN(C(=O)Nc2scnc2C(C)C)C1`, the “% Inhibition” value is reported as -12% and the Z score is reported as 1.18.

Take `COc1ccccc1N1CCN(C(=O)Cc2c(C)nc3nc(-c4cccs4)nn3c2C)CC1`: the “% Inhibition” value is -5% and the Z score is 0.67.

As to `CCOC(=O)N1CCC(NC(N)=NCc2ccc(OCC)cc2)CC1`, the “% Inhibition” value was -1% and the Z score is listed as 0.09.

Take `Cc1nc2c(N[C@@H](CCn3cncn3)c3ccccc3)ncnc2o1`: the “% Inhibition” value was -2% and the Z score is reported as 0.42.

Turning to `O=C(NCC1CC1)c1nn(Cc2ccc(F)cc2)c2c1COCC2`, the “% Inhibition” value is -19% and the Z score turned out to be 2.37.

Take `Cc1cnc(C(=O)N[C@@H]2CCC[C@@H]2C(=O)NCc2ccc(N3CCOCC3)cc2)cn1`: the “% Inhibition” value was -9% and the Z score is listed as 1.21.

In the case of `O=C1NCC2(CCN(Cc3cc4n(n3)CCN(Cc3cccs3)C4)CC2)O1`, the “% Inhibition” value is -1% and the Z score is 0.16.

On to `CCOC(=O)CC(=O)Nc1cc(C)ccc1S(N)(=O)=O`, for which the “% Inhibition” value is -21% and the Z score came to 2.67.

`CCOC(=O)c1cn2c(n1)N(C(=O)c1ccccc1OCC)CCC2`: the “% Inhibition” value turned out to be 1% and the Z score was -0.07.

On to `Cc1n[nH]c(CN2CCN(Cc3ccc4c(c3)OCO4)C(=O)C2)n1`, for which the “% Inhibition” value is -2% and the Z score is reported as 0.44.

As to `C[C@H]1CCCN(CCCNC(=O)c2cc3occc3c(Nc3ccc(F)cc3)n2)C1`, the “% Inhibition” value was -3% and the Z score was found to be 0.33.

Consider `Clc1cccc(N2CCN(Cc3ccc(OC4CCNCC4)cc3)CC2)c1`, for which the “% Inhibition” value is 30% and the Z score is -1.28.

As to `CCCCCC1CCC(c2ccc(-c3ccc(CCC)cn3)cc2F)CC1` (stereo unspecified), the “% Inhibition” value was -5% and the Z score came to 0.62.

On to `O=C(NC[C@]1(O)CCCN(C(=O)c2cccs2)CC1)N1CCOCC1`, for which the “% Inhibition” value was determined as 2% and the Z score is listed as -0.41.

For the molecule `CCn1cnnc1[C@H]1CCCN(CC(=O)N(C)Cc2ccc(F)cc2)C1`, the “% Inhibition” value is -9% and the Z score came out at 1.22.

As to `CC(C)(C)C(=O)N1CC[C@H](Oc2cccc3cccnc23)C1`, the “% Inhibition” value is reported as -24% and the Z score is listed as 4.54.

Regarding `Cc1cc(F)cc2c(=O)c(C(=O)N3CC(C)(C)C3(C)C)c[nH]c12`, the “% Inhibition” value is given as -7% and the Z score came out at 0.79.

With `O=C(CCOc1cccc(F)c1)N1C[C@@H]2CS(=O)(=O)C[C@@H]2C1`, the “% Inhibition” value is recorded as -6% and the Z score amounted to 0.72.

With `Cc1nn(-c2ccc(C(F)(F)F)cn2)c(C)c1CC(=O)N1CCN(c2ncccn2)CC1`, the “% Inhibition” value is reported as -2% and the Z score came out at 0.36.

Take `CCC1(CC)CN(C(=O)NC2Cc3ccccc3C2)C1`: the “% Inhibition” value is reported as -3% and the Z score is listed as 0.49.

For `COc1ccc(CNS(=O)(=O)N(C)C2CC2)cc1OC`, the “% Inhibition” value is listed as 6% and the Z score is on record as -0.76.

As to `CC1(C)C(=O)NCCN1C(=O)c1ccc2nccnc2c1`, the “% Inhibition” value is 36% and the Z score is given as -0.79.

On to `CCC(C)N(CC(=O)N1CCc2sccc2C1COc1ccc(Cl)cc1)C(=O)c1cccc(OC)c1` (stereo unspecified), for which the “% Inhibition” value is given as -5% and the Z score turned out to be 0.53.

On to `COc1ccc2[nH]c(CN[C@@H](C)Cn3nc(C)cc3C)cc2c1`, for which the “% Inhibition” value is -3% and the Z score came to 0.52.

Regarding `O=C1CC[C@H](N2CCN(Cc3ccc4c(c3)OCO4)CC2)CCN1Cc1ccc(F)c(F)c1`, the “% Inhibition” value was -3% and the Z score was 0.35.

Take `CCn1nc(C)cc1C(=O)Nc1cccc(-c2nnnn2CC)c1`: the “% Inhibition” value was -12% and the Z score is on record as 1.39.

On to `CCc1nccn1CCN(C)Cc1noc(C(C)C)n1`, for which the “% Inhibition” value is -14% and the Z score was found to be 2.13.

For the molecule `Cc1ccc(C)c(N2CCN(S(=O)(=O)c3c(C)sc(C)c3-c3[nH]nc(C)c3C)CC2)c1`, the “% Inhibition” value is 3% and the Z score is given as -0.35.

For the molecule `CN(C)c1ncccc1N(C)C(=O)Cc1ccon1`, the “% Inhibition” value is -3% and the Z score amounted to 0.59.

Turning to `O=C(NC[C@H]1CCCN1c1nccs1)c1ccccc1`, the “% Inhibition” value was -12% and the Z score is on record as 2.25.

Regarding `CC(C)c1noc([C@H](C)NS(=O)(=O)N2CCOCC2)n1`, the “% Inhibition” value is on record as 2% and the Z score was -0.37.

`CS(=O)(=O)N1CCO[C@@H](Cn2ccnc2-c2cc(C#CCO)cs2)C1`: the “% Inhibition” value was -9% and the Z score is listed as 1.07.

On to `Cc1ccc(C(=O)n2cnc(N)n2)cc1`, for which the “% Inhibition” value is reported as -5% and the Z score is given as 0.95.

For the molecule `CCOC(=O)CC1(N(C)C(=O)c2cc(C)on2)CCCCC1`, the “% Inhibition” value is listed as -10% and the Z score is 1.31.

On to `O=C(C1CCC(C2CC2)N1)N1CCC2(CCc3ccccc3C2=O)CC1` (stereo unspecified), for which the “% Inhibition” value was 1% and the Z score was -0.19.

Consider `CC1CN(C(=O)c2cn(C)nn2)CC(c2ccsc2)O1` (stereo unspecified), for which the “% Inhibition” value is listed as 5% and the Z score is -0.61.

On to `Cc1cc(C(=O)N2CCn3c(nnc3C(F)F)C2)nn1C(C)C`, for which the “% Inhibition” value was 5% and the Z score was -0.92.

In the case of `CCOC(=O)CCc1c(C)nn(-c2nc(C)cc(C)n2)c1O`, the “% Inhibition” value was 4% and the Z score is reported as -0.6.

On to `Cc1nccn1[C@@H](C)C(=O)NCCc1nccn1C`, for which the “% Inhibition” value is reported as -11% and the Z score is given as 1.76.

`COc1ccccc1NS(=O)(=O)c1cc(-c2nnc(C(=O)N3CCCC3)o2)sc1C`: the “% Inhibition” value worked out at 5% and the Z score is listed as -0.62.

On to `Cc1nsc(NC2CC2)c1C(=O)N1CCN(c2c(F)cccc2F)CC1`, for which the “% Inhibition” value is -4% and the Z score was determined as 0.69.
